Laboratory results reported in the antibiotic and cytotoxicity screens of Wong et al. (2023).
The list shows a part of the results.

Each molecule was assayed on HSkMC (human skeletal muscle cells) (assay: cytotoxicity call (relative viability < 0.9)). Conditions: 10 µM.

SMILES | cytotoxicity call
COc1ccc(CN(C)C[C@H]2OCCCC[C@H](C)Oc3ccc(NC(=O)NC4CCCCC4)cc3C(=O)N([C@H](C)CO)C[C@@H]2C)cc1 | inactive
CCN(CC)c1nc(C#N)nc(OC)n1 | inactive
COC(=O)c1c(N)c(C#N)c2n1CCC2 | inactive
Cn1cnc(CCNC(=O)C[C@@H]2CC[C@@H]3[C@H](COC[C@H](O)CN3C(=O)Nc3ccc(Cl)cc3)O2)c1 | inactive
COC(=O)C[C@H]1C=C[C@H](N)[C@H](CO)O1 | inactive
COc1ccc(CCNC(=O)[C@@]2(Cc3ccccc3I)c3ccccc3C(=O)N(C3CCCCC3)[C@H]2c2ccc(CO)cc2)cc1 | inactive
C[C@H](CO)N1C[C@H](C)[C@H](CN(C)Cc2ccc3c(c2)OCO3)Oc2ccc(NS(=O)(=O)c3ccccc3)cc2CC1=O | inactive
Cc1noc(C)c1S(=O)(=O)N(C)C[C@@H]1OCc2cn(nn2)CCCC(=O)N([C@@H](C)CO)C[C@@H]1C | inactive
OCCC1CCOCC1 | inactive
Cc1noc(C)c1NC(=O)Nc1ccc2c(c1)C(=O)N([C@@H](C)CO)C[C@@H](C)[C@@H](CN(C)Cc1ccc(Cl)c(Cl)c1)O2 | inactive
CC=Cc1ccc2n(c1=O)C[C@H]1[C@H](CO)[C@@H](C(=O)NCCc3cn(C)cn3)N(C(=O)CC)[C@@H]21 | inactive
COc1ccc(CN(C)C[C@H]2OCCCC[C@H](C)Oc3ccc(NC(=O)Nc4cccc5ccccc45)cc3C(=O)N([C@H](C)CO)C[C@@H]2C)cc1 | inactive
CN(Cc1cnc2nc(N)nc(N)c2n1)c1ccc(C(=O)NC(CCC(=O)O)C(=O)O)cc1.O (centres undefined) | inactive
CC(C)[Si](C#CCCCC#N)(O[C@H](c1ccccc1)c1cn(Cc2cccc(Cl)c2)nn1)C(C)C | inactive
COC(=O)C1=C(C)NC(C)=C(C(=O)OCC(C)C)[C@@H]1c1ccccc1[N+](=O)[O-] | inactive
Cc1noc(C)c1S(=O)(=O)Nc1ccc2c(c1)C(=O)N([C@@H](C)CO)C[C@H](C)[C@@H](CN(C)S(C)(=O)=O)O2 | inactive
Nc1ncn([C@@H]2O[C@H](CO)[C@@H](O)[C@H]2O)c(=O)n1 | active
Cc1noc(C)c1S(=O)(=O)Nc1ccc2c(c1)C(=O)N([C@H](C)CO)C[C@H](C)[C@H](CN(C)S(=O)(=O)c1cn(C)cn1)OCCCC[C@H](C)O2 | inactive
COc1ccc(CN(C)C[C@H]2Oc3c(NS(C)(=O)=O)cccc3C(=O)N([C@@H](C)CO)C[C@H]2C)cc1 | inactive
CNc1ncnc(Cl)c1N | inactive
CCOC(=O)[C@H](Cc1ccccc1)NC(=O)c1cc(Cl)c(OCCN2CCN(C)CC2)c(Cl)c1O | inactive
CC(C)NCCCn1c(Sc2cc3c(cc2I)OCO3)nc2c(N)ncnc21 | inactive
C[C@@H]1CCCCO[C@@H](CN(C)S(=O)(=O)c2ccccc2)[C@@H](C)CN([C@@H](C)CO)C(=O)c2cc(NC(=O)C3CCCCC3)ccc2O1 | inactive
C[C@@H]1CN([C@@H](C)CO)C(=O)c2c(c3ccccc3n2C)-c2ccccc2CO[C@@H]1CN(C)C(=O)c1cc(Cl)cc(Cl)c1 | inactive
COc1ccc(S(=O)(=O)N(C)C[C@H]2Oc3c(NC(=O)c4cnccn4)cccc3C(=O)N([C@@H](C)CO)C[C@H]2C)cc1 | inactive
Cc1ccc(S(=O)(=O)Nc2ccc3c(c2)C(=O)N([C@H](C)CO)C[C@H](C)[C@@H](CN(C)C(=O)Nc2ccc(C(F)(F)F)cc2)O3)cc1 | inactive
C[C@H](CO)N1C[C@H](C)[C@@H](CN(C)S(C)(=O)=O)Oc2ccc(NS(=O)(=O)c3ccc(Cl)cc3)cc2C1=O | inactive
C[C@@H]1CCCCO[C@H](CN(C)C(=O)NC2CCCCC2)[C@@H](C)CN([C@H](C)CO)C(=O)c2cc(NC(=O)Cc3ccccc3)ccc2O1 | inactive
C[C@@H]1CCCCO[C@@H](CN(C)S(=O)(=O)c2ccc(Cl)cc2)[C@@H](C)CN([C@H](C)CO)C(=O)c2cc(NC(=O)CCC(F)(F)F)ccc2O1 | inactive
